# Measurements: the supplement of paper PMC4604168 (melanoma cell lines)
# The other results are listed elsewhere or left out. Most values come without repeats; read them as rough.
# What was measured:
# Assay in all cases: cell count relative to DMSO control; melanoma cells; higher = more viable cells
# Conditions in all cases: library dose: low library concentration; 72 h
# MZ2-MEL = test system: MZ2-MEL
# MeWo = test system: MeWo
# RPMI7951 = test system: RPMI7951
# RVH-421 = test system: RVH-421
# SkMel28 = test system: SkMel28
# SkMel2 = test system: SkMel2
# SkMel30 = test system: SkMel30
# SkMel5 = test system: SkMel5
# UACC257 = test system: UACC257
# UACC62 = test system: UACC62
# 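Also: cell number obtained by counting DAPI-stained nuclei in high-throughput microscope images with image analysis software, screen run in 1,536-well plates.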
Compound,cell count (MZ2-MEL) [%],cell count (MeWo) [%],cell count (RPMI7951) [%],cell count (RVH-421) [%],cell count (SkMel28) [%],cell count (SkMel2) [%],cell count (SkMel30) [%],cell count (SkMel5) [%],cell count (UACC257) [%],cell count (UACC62) [%]
"CCCS(=O)(=O)Nc1ccc(F)c(C(=O)c2c[nH]c3ncc(Cl)cc23)c1F + COc1cc(Nc2ncc(F)c(Nc3ccc4c(n3)NC(=O)C(C)(C)O4)n2)cc(OC)c1OC [Tamatinib] (first compound 0.08 µM, partner dose 0.4 µM)",83.9,88,84,93.4,82.9,91.1,73.9,97.3,67.5,70.5
"CS(=O)(=O)c1ccc(C(=O)Nc2ccc(Cl)c(-c3ccccn3)c2)c(Cl)c1 [vismodegib] + CCCCCCCCc1ccc(CCC(N)(CO)CO)cc1 [fingolimod] (first compound 1 µM, partner dose 2 µM)",105,81.6,81.9,127,88.3,99.4,90.5,–,–,83.1
"CS(=O)(=O)c1ccc(C(=O)Nc2ccc(Cl)c(-c3ccccn3)c2)c(Cl)c1 [vismodegib] + CCN(CC)CCNC(=O)c1c(C)[nH]c(/C=C2\C(=O)Nc3ccc(F)cc32)c1C [sunitinib] (first compound 1 µM, partner dose 0.4 µM)",104,107,90.2,116,103,102,97.7,–,–,110
"C=C(c1ccc(C(=O)O)cc1)c1cc2c(cc1C)C(C)(C)CCC2(C)C [Bexarotene] + CC(C)(C)c1cnc(CSc2cnc(NC(=O)C3CCNCC3)s2)o1 [SNS-032] (first compound 2 µM, partner dose 0.01 µM)",110,94,91.8,88.2,73.8,99.8,96.7,85.5,72.1,79.6
"CS(=O)(=O)c1ccc(C(=O)Nc2ccc(Cl)c(-c3ccccn3)c2)c(Cl)c1 [vismodegib] + C[C@]1(c2nc3c(C(N)=O)cccc3[nH]2)CCCN1 [Veliparib] (first compound 1 µM, partner dose 1.4 µM)",106,90.9,91.8,78.2,96.5,102,91.6,–,–,96.5
"CS(=O)(=O)c1ccc(C(=O)Nc2ccc(Cl)c(-c3ccccn3)c2)c(Cl)c1 [vismodegib] + Cc1cc(N2CCOCC2)cc2[nH]c(-c3c(NC[C@@H](O)c4cccc(Cl)c4)cc[nH]c3=O)nc12 [BMS536924] (first compound 1 µM, partner dose 0.2 µM)",106,91.7,99.8,99,97,98.7,72.3,96.1,92.2,85.9
"CS(=O)(=O)c1ccc(C(=O)Nc2ccc(Cl)c(-c3ccccn3)c2)c(Cl)c1 [vismodegib] + CC(C)C[C@H](NC(=O)[C@H](Cc1ccccc1)NC(=O)c1cnccn1)B(O)O [Bortezomib] (first compound 1 µM, partner dose 0.001 µM)",98,97.7,95.8,97.2,92.9,93.4,104,–,–,95
"CS(=O)(=O)c1ccc(C(=O)Nc2ccc(Cl)c(-c3ccccn3)c2)c(Cl)c1 [vismodegib] + Cn1nnc2c(C(N)=O)ncn2c1=O [temozolomide] (first compound 1 µM, partner dose 2 µM)",102,96,96.5,107,98.9,106,93.1,–,–,89
"NC1(c2ccc(-c3nc4ccn5c(=O)[nH]nc5c4cc3-c3ccccc3)cc2)CCC1 + COc1cc2ncnc(Nc3ccc(Oc4ccccc4)cc3)c2cc1OC [SrcI1] (first compound 0.4 µM, partner dose 2 µM)",93.3,92.5,80.2,97.2,74.6,89.4,79.9,118,76.6,65.3
"C=C(c1ccc(C(=O)O)cc1)c1cc2c(cc1C)C(C)(C)CCC2(C)C [Bexarotene] + O=C(O)C(=O)Nc1sc2c(c1C(=O)O)CCNC2 [TCS401] (first compound 2 µM, partner dose 1.66667 µM)",107,96.3,99.2,92.9,94.3,99.1,97.6,81.7,83.2,93.5
"CCCS(=O)(=O)Nc1ccc(F)c(C(=O)c2c[nH]c3ncc(Cl)cc23)c1F + O=C1NC(=O)/C(=C/c2ccc(-c3ccc(F)cc3O)o2)S1 [AS252424] (first compound 0.08 µM, partner dose 1 µM)",86.2,102,107,76.3,69.6,88.3,90.6,110,70.1,54.2
"CS(=O)(=O)c1ccc(C(=O)Nc2ccc(Cl)c(-c3ccccn3)c2)c(Cl)c1 [vismodegib] + CC(C)CCN1c2nc(Nc3cc(F)c(O)c(F)c3)ncc2N(C)C(=O)C1C [BID1870] (first compound 1 µM, partner dose 0.2 µM)",110,96.4,98.4,96.9,101,102,88.5,104,74.9,105
"CCCS(=O)(=O)Nc1ccc(F)c(C(=O)c2c[nH]c3ncc(Cl)cc23)c1F + Cn1cc(/C=C2\C(=O)Nc3cccnc32)c2ccccc21 [GW441756] (first compound 0.08 µM, partner dose 0.4 µM)",87.8,92.4,96.6,81.1,72.2,98.2,108,99.1,91.5,63.4
"CCCS(=O)(=O)Nc1ccc(F)c(C(=O)c2c[nH]c3ncc(Cl)cc23)c1F + O=c1cc(-c2cccc3c2Sc2ccccc2S3)oc(N2CCOCC2)c1 [KU55933] (first compound 0.08 µM, partner dose 1 µM)",93.9,111,119,99.6,77.7,94.3,95.4,111,86.1,55.6
"CCCS(=O)(=O)Nc1ccc(F)c(C(=O)c2c[nH]c3ncc(Cl)cc23)c1F + COc1ccc2c(c1)CCC1C2CCC2(C)C(NCCCCCCN3C(=O)C=CC3=O)CCC12 [U73122] (first compound 0.08 µM, partner dose 0.4 µM)",85.6,111,98.6,90.1,80,106,144,108,87.7,63.6
"C=C(c1ccc(C(=O)O)cc1)c1cc2c(cc1C)C(C)(C)CCC2(C)C [Bexarotene] + COc1ccc(-c2ccc3c(N4CCOCC4)nc(N4C[C@@H](C)O[C@@H](C)C4)nc3n2)cc1CO [KU0063794] (first compound 2 µM, partner dose 0.02 µM)",95.4,80.1,73.1,83.4,73.7,86.1,109,84.4,96.2,92.4
"NC1(c2ccc(-c3nc4ccn5c(=O)[nH]nc5c4cc3-c3ccccc3)cc2)CCC1 + CN(C)S(=O)(=O)c1ccc2c(c1)/C(=C/c1cc3c([nH]1)CCCC3)C(=O)N2 [SU6656] (first compound 0.4 µM, partner dose 0.4 µM)",99.4,81.8,96.9,78,78.9,75.1,80.1,90.4,96.8,72.5
"C=C(c1ccc(C(=O)O)cc1)c1cc2c(cc1C)C(C)(C)CCC2(C)C [Bexarotene] + CC(C)CCN1c2nc(Nc3cc(F)c(O)c(F)c3)ncc2N(C)C(=O)C1C [BID1870] (first compound 2 µM, partner dose 0.2 µM)",99.3,83.6,64.2,90.9,71.2,83.5,91.5,96.8,108,80.5
"C=C(c1ccc(C(=O)O)cc1)c1cc2c(cc1C)C(C)(C)CCC2(C)C [Bexarotene] + Cn1cc(/C=C2\C(=O)Nc3cccnc32)c2ccccc21 [GW441756] (first compound 2 µM, partner dose 0.4 µM)",91.9,89.2,71.5,83.4,69.2,102,91.7,78.5,78.6,88.2
"CCCS(=O)(=O)Nc1ccc(F)c(C(=O)c2c[nH]c3ncc(Cl)cc23)c1F + Cn1cncc1[C@@](N)(c1ccc(Cl)cc1)c1ccc2c(c1)c(-c1cccc(Cl)c1)cc(=O)n2C [tipifarnib] (first compound 0.08 µM, partner dose 0.01 µM)",104,87.8,93,77.8,80.3,83.1,121,112,53.6,62.1
"C=C(c1ccc(C(=O)O)cc1)c1cc2c(cc1C)C(C)(C)CCC2(C)C [Bexarotene] + CC(=O)c1c(C)c2cnc(Nc3ccc(N4CCNCC4)cn3)nc2n(C2CCCC2)c1=O [palbociclib] (first compound 2 µM, partner dose 0.04 µM)",83.4,79.5,59.8,76.4,90.3,73.5,89.6,–,–,78
"C=C(c1ccc(C(=O)O)cc1)c1cc2c(cc1C)C(C)(C)CCC2(C)C [Bexarotene] + CCc1ccc(CCOc2ccc(CC3SC(=O)NC3=O)cc2)nc1 [pioglitazone] (first compound 2 µM, partner dose 2 µM)",105,90.7,82.6,134,90.3,99.4,128,88.4,118,93.6
